According to ChEMBL document CHEMBL4888484, “Replenishing the malaria drug discovery pipeline: Screening and hit evaluation of the MMV Hit Generation Library 1 (HGL1) against asexual blood stage Plasmodium falciparum ,using a nano luciferase reporter read-out” (2022):
Hit rate of the full screen: of about 4,800 compounds, about 410 (8.5%) showed an effect of 50% or more. This is one part of the list.

Each compound was assayed on Plasmodium falciparum (assay: Confirmatory screen in NF54 pLDH assay, in single point, at 2uM, 72h). Settings: timepoint 72 hour.
Assay type: functional, Erythrocyte

How did the “% Inhibition” value turn out when `Cc1cc(NC(=O)c2cccc(S(=O)(=O)NC3CC3)c2)no1` was run?
Its value is -23%.

Which “% Inhibition” value does the source give for `O=C(Nc1ncn(C[C@@H](COC(=O)c2ccc(F)cc2)OC(=O)c2ccc(F)cc2)c2ncnc1-2)c1ccc(F)cc1` here?
The value was -10%.

For `CCCOC(=O)c1cc(NC(=O)c2ccc3ccccc3c2)ccc1N1CCOCC1`, which “% Inhibition” value is on record?
The value was -11%.

With `CCN(c1ccc(C(=O)Nc2cnc3[nH]nc(C)c3c2)cn1)C(C)C` as the compound, how does the “% Inhibition” value read?
The value was 14%.

`O=C(c1ccccc1F)N(Cc1nccn1Cc1ccccc1F)CC1CC1` was tested. Which “% Inhibition” value did it give?
Its value is -7%.

`Cc1ccc(C(=O)Nc2ccc(N3CCN(c4c(F)c(F)c(F)c(F)c4F)CC3)cc2)c(Cl)c1` was tested. Which “% Inhibition” value did it give?
Its value is 8%.

Which “% Inhibition” value does the source give for `CC1(C)Oc2ccc(NC(=O)COc3ccccc3)cc2NC1=O` here?
The value was 12%.

`O=C(Cn1cnc2ccc(Cl)cc2c1=O)NCc1ccc2c(c1)OCO2` was tested. Which “% Inhibition” value did it give?
Its value is -5%.

For `CC(C)(C)[C@H](Cn1cccn1)NC(=O)Cn1nc(C(F)F)c2c1CCC2`, which “% Inhibition” value is on record?
Its value is -5%.

How did the “% Inhibition” value turn out when `CN(c1ccc2nnnn2n1)C1CCCCC1` was run?
The value was 7%.

Which “% Inhibition” value does the source give for `Cn1ccnc(NC(=O)N(Cc2c(F)cccc2F)C2CC2)c1=O` here?
Its value is -12%.

With `COc1cncc(C(=O)N2CCCc3cc(S(C)(=O)=O)ccc32)n1` as the compound, how does the “% Inhibition” value read?
The value was 10%.

With `Cc1n[nH]cc1Nc1ccnc(C(C)(C)C)n1` as the compound, how does the “% Inhibition” value read?
Its value is 7%.

Which “% Inhibition” value does the source give for `C[C@H](Oc1ccccc1Cl)/C(N)=N\O` here?
Its value is 6%.

Which “% Inhibition” value does the source give for `Cc1ccc(-c2cn3c4ccccc4nc3n2CCN2CCN(C)CC2)cc1` here?
Its value is 4%.

How did the “% Inhibition” value turn out when `N=C(Cc1ccccc1)NOC(=O)c1cccc2ccccc12` was run?
Its value is -7%.

With `CCOC(=O)[C@@H](N1CCCC1=O)n1c(=O)[nH]cc(C)c1=O` as the compound, how does the “% Inhibition” value read?
The value was -15%.

Which “% Inhibition” value does the source give for `O=C(c1cncnc1)N1C[C@H]2CCCC(=O)N(Cc3ccccc3)[C@H]2C1` here?
Its value is 7%.

With `Cc1ccc(Cl)c(OCn2ccc(C(=O)Nc3ccc(Br)cn3)n2)c1` as the compound, how does the “% Inhibition” value read?
Its value is -22%.

How did the “% Inhibition” value turn out when `Cc1cc(N2CC(OCc3ccccc3)C2)nc(Nc2cccc(O)c2)n1` was run?
Its value is 96%.

`Cc1cnc(N2CCCC2C2CCCO2)s1` (configuration not stated) was tested. Which “% Inhibition” value did it give?
The value was -18%.

Which “% Inhibition” value does the source give for `COc1ccccc1[C@@H]1C=C(c2cccnc2)Nc2ncnn21` here?
The value was -13%.

For `O=C(O)c1cc(N2CCC(Cc3ccccc3)CC2)ccc1NC(=O)C1CCC1`, which “% Inhibition” value is on record?
Its value is -7%.

Which “% Inhibition” value does the source give for `Cc1ccc(Cl)c(OC(C)C(=O)N2C3CCC2CC(O)(Cc2ccc(F)cc2F)C3)c1` (configuration not stated) here?
Its value is 11%.

How did the “% Inhibition” value turn out when `C[C@H]1[C@@H]2[C@@H](O)C([C@H](C)C(=O)NC3CCCC3)CC[C@@]2(C)CC[C@@H]1NC(=O)c1ccc(C#N)cc1` (some centres not stated) was run?
Its value is -10%.

With `Cn1cc(NC(=O)Nc2cccc(OCC(F)F)n2)cn1` as the compound, how does the “% Inhibition” value read?
The value was -7%.

For `CN(C)c1ccc(NC(=O)C(C2CC=CCC2)N(Cc2nc(-c3ccccc3)cs2)C(=O)Cn2nnc3ccccc32)cc1` (configuration not stated), which “% Inhibition” value is on record?
The value was 1%.

For `Cc1nn(-c2ccccc2)c(C)c1C(=O)Nc1cccc(N2CCCC2=O)c1`, which “% Inhibition” value is on record?
Its value is -8%.

For `CNC(=O)Nc1cc(C)cc2c(-c3ccccc3)c(C(=O)NCc3cccc(F)c3)[nH]c12`, which “% Inhibition” value is on record?
Its value is 7%.

`CCC(C)(CC)[C@@](O)(C#CC[N+]1(Cc2ccccc2Cl)CCCCC1)c1ccccc1` was tested. Which “% Inhibition” value did it give?
The value was 10%.

Which “% Inhibition” value does the source give for `Cn1ncc2c(NCCO)nc(N3CCCCCC3)nc21` here?
The value was 12%.

Which “% Inhibition” value does the source give for `Cc1cc(N2CCC3(CCCN3Cc3cc(C#N)n(C)c3C)CC2)c2ccccc2n1` here?
Its value is 15%.

`CC(C)(C)CCN1CCN(S(=O)(=O)C[C@H]2CCCS(=O)(=O)C2)CC1` was tested. Which “% Inhibition” value did it give?
Its value is 6%.

`CC(C)NC(=O)c1ccc(CN2C(=O)COc3ccc(C(=O)COc4ccc(F)c(F)c4)cc32)o1` was tested. Which “% Inhibition” value did it give?
The value was 1%.

With `CN(C)CCOC(=O)CC[C@H]1CCOC(C)(C)C1` as the compound, how does the “% Inhibition” value read?
The value was 4%.

Which “% Inhibition” value does the source give for `O=C(O)COc1ccccc1[C@H]1CC(O)=Nc2cccc3c2c1cn3Cc1cccc(F)c1` here?
Its value is 8%.

For `Fc1ccc(OCc2nccc(-c3ccc4c(c3)OCO4)n2)cc1`, which “% Inhibition” value is on record?
Its value is 13%.

With `O=C(N[C@@H](Cc1ccccc1)C(=O)OCc1cnc(-c2ccccc2)o1)c1ccccc1` as the compound, how does the “% Inhibition” value read?
Its value is 13%.

Which “% Inhibition” value does the source give for `O=S1(=O)CCN(C2CCN(Cc3c(F)cccc3F)CC2)CC1` here?
The value was 14%.

`COCCCn1c(=O)c2ccccc2n(CC(=O)N(C)c2ccccc2)c1=O` was tested. Which “% Inhibition” value did it give?
The value was -25%.

Which “% Inhibition” value does the source give for `Cc1cc(C)c(NC(=O)c2nnn(CC(=O)NCc3ccc(F)cc3)c2C)c(C)c1` here?
The value was -10%.

Which “% Inhibition” value does the source give for `Cn1nccc1CCNS(=O)(=O)c1c[nH]c2cccc(F)c12` here?
The value was 10%.

With `Cc1ccc(-c2csc(NC(=O)c3cccc(C(=O)Nc4nc(-c5ccc(C)cc5C)cs4)n3)n2)c(C)c1` as the compound, how does the “% Inhibition” value read?
The value was -7%.

For `CC1CCC(c2noc([C@H]3CCO[C@@H]3c3cncc(Br)c3)n2)CC1` (some centres not stated), which “% Inhibition” value is on record?
The value was 59%.

For `COc1cc(NC(=O)N[C@@H](C)C(=O)N2CCc3ccccc32)cc(OC)c1`, which “% Inhibition” value is on record?
Its value is 11%.

Which “% Inhibition” value does the source give for `COc1cccc(C2C(NC(=O)c3ccoc3)CCN2C2CC2)c1` (configuration not stated) here?
The value was -16%.

For `Cc1ccccc1[C@H](CC(=O)O)NC(=O)C(F)(F)F`, which “% Inhibition” value is on record?
The value was 16%.

How did the “% Inhibition” value turn out when `S=c1cc(-c2ccccc2)n(Cc2ccco2)c2c1CCCC2` was run?
The value was 43%.

With `OCCCN1c2ccccc2Nc2nnc(-c3ccccc3)cc21` as the compound, how does the “% Inhibition” value read?
Its value is 3%.

`Cc1ccc(-c2nc(CNC(=O)C[C@H]3CNCCO3)[nH]c2-c2ccccn2)cc1` was tested. Which “% Inhibition” value did it give?
Its value is 23%.

Which “% Inhibition” value does the source give for `FC(F)(F)c1cc(Oc2cc(Oc3ccc(Cl)c(C(F)(F)F)c3)nc(Oc3ccc(Cl)c(C(F)(F)F)c3)n2)ccc1Cl` here?
Its value is 2%.

For `COc1ccc(C(=O)N2CC[C@H](CC(=O)N3CCOCC3)C2)cc1`, which “% Inhibition” value is on record?
Its value is 1%.

`Cc1ccc(-c2noc(CCC(=O)NC[C@H]3CCCO3)n2)c(=O)n1C(C)C` was tested. Which “% Inhibition” value did it give?
Its value is 0%.

For `C[C@@]12CCCCN1CCCc1c2[nH]c2ccccc12`, which “% Inhibition” value is on record?
Its value is -19%.

`CC(C)COCn1cc(Br)c(=O)[nH]c1=O` was tested. Which “% Inhibition” value did it give?
Its value is -1%.

With `CCC(C#N)(CC)c1nc(-c2cc(N)nc3ccccc23)no1` as the compound, how does the “% Inhibition” value read?
Its value is 8%.

With `O=C1C2CC=CCC2C(=O)N1CNc1ccc(Cl)cc1` (configuration not stated) as the compound, how does the “% Inhibition” value read?
The value was -9%.

`O=C(c1ccc(Cl)cc1)c1c[nH]c2c(F)cc(F)cc2c1=O` was tested. Which “% Inhibition” value did it give?
Its value is 8%.

For `COc1cccc(NC(=O)C2=Cc3cc(Cl)cc(OC)c3OC=C2)c1`, which “% Inhibition” value is on record?
Its value is -2%.

`Cc1nc2ccc(N(C)S(=O)(=O)c3cc(C(=O)O)cs3)cc2s1` was tested. Which “% Inhibition” value did it give?
Its value is 12%.

How did the “% Inhibition” value turn out when `COc1ccc(CNC(=O)Cn2c(=O)n(CCc3cccs3)c(=O)c3ccccc32)cc1` was run?
Its value is 15%.

Which “% Inhibition” value does the source give for `COc1cc(C)c2[nH]c3c(c(=O)c2c1)CN(CC(=O)Nc1ccc(C)c(F)c1)CC3` here?
Its value is 8%.
